Measured values reported in the RNAGym collection of RNA variant scans (doi:10.1093/nar/gkz1192).
The source gives no read counts; variants with many changes may rest on few reads.

B1: CPEB3 Ribozyme (parent)
chain: UAACAGGGGGCCACAGCAGAAGCGUUCACGUCGCAGCCCCUGUCAGAUUCUGGUGAAUCUGCGAAUUCUGCUGUAUAUCUC

Variants of: B1
Test: self-cleavage, relative activity (ratio to wild type); higher = more cleavage; in vitro, sequencing
Outline: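 For each CPEB3 ribozyme variant, relative activity is its cleaved/total read fraction divided by the unmutated ribozyme's. Barcoded error-prone PCR libraries were transcribed by T7 RNA polymerase (5 hours, 37°C) and held in DNase I for 15 min before an EDTA stop, with cleavage occurring throughout. Template-switching reverse transcription and Illumina sequencing were used to read the RNAs. A 5-read minimum applied, and results are the mean of three batches.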

Question: For UAACAGGGGGCCACAGCAGAAGCGUUCACGCCGCAGCCCCUGUCAGAUUCUGGUGAAACUGCGAAUCCUGCCGUAUAUCUC, which self-cleavage is on record?
Answer: 0.26

Question: For UAACAGGGGGCCACAGCAGAAGCGUUCACGCCGCAGCCCCUGUCAGAUUCUGGUGAAACUGCGAAUUCUGCCGUAUAUCUC, which self-cleavage is on record?
Answer: 0.23

Question: For UAACAGGGGGCCACAGCAGAAGCGUUCACGCCGCAGCCCCUGUCAGAUUCUGGUGAAACUGCGAAUUCUGCUGUAUAUCCC, which self-cleavage is on record?
Answer: 0.52

Question: For UAACAGGGGGCCACAGCAGAAGCGUUCACGCCGCAGCCCCUGUCAGAUUCUGGUGAACCUGCGAAUUCUGCUGUGUAUCUC, which self-cleavage is on record?
Answer: 0.2

Question: With UAACAGGGGGCCACAGCAGAAGCGUUCACGCCGCAGCCCCUGUCAGAUUCUGGUGAACCUGCGAAUUCUGCUGAAUAUCUC as the variant, how does the self-cleavage read?
Answer: 0.56

Question: With UAACAGGGGGCCACAGCAGAAGCGUUCACGCCGCAGCCCCUGUCAGAUUCUGGUGAAUCAGCAAAUUCUGCUGUAUAUCUC as the variant, how does the self-cleavage read?
Answer: 0.27

Question: Which self-cleavage does the source give for UAACAGGGGGCCACAGCAGAAGCGUUCACGCCGCAGCCCCUGUCAGAUUCUGGUGAAUCAGCGAAUUCUGCUGUAUAUCAC here?
Answer: 0.36

Question: Which self-cleavage does the source give for UAACAGGGGGCCACAGCAGAAGCGUUCACGCCGCAGCCCCUGUCAGAUUCUGGUGAAUCCGCGUAUUCUGCUGUAUAUCUC here?
Answer: 0.43

Question: Which self-cleavage does the source give for UAACAGGGGGCCACAGCAGAAGCGUUCACGCCGCAGCCCCUGUCAGAUUCUGGUGAAUCCGCGAAUUAUGCUGUAUAUCUC here?
Answer: 0.2

Question: With UAACAGGGGGCCACAGCAGAAGCGUUCACGCCGCAGCCCCUGUCAGAUUCUGGUGAAUCCGCGAACUCUGCUGUAUAUCUC as the variant, how does the self-cleavage read?
Answer: 0.36

Question: For UAACAGGGGGCCACAGCAGAAGCGUUCACGCCGCAGCCCCUGUCAGAUUCUGGUGAAUCCGCGAAUUCCGCCGUAUAUCUC, which self-cleavage is on record?
Answer: 0.43

Question: Which self-cleavage does the source give for UAACAGGGGGCCACAGCAGAAGCGUUCACGCCGCAGCCCCUGUCAGAUUCUGGUGAAUCCGCGAAUUCUGCAGUAUGUCUC here?
Answer: 0.17

Question: Which self-cleavage does the source give for UAACAGGGGGCCACAGCAGAAGCGUUCACGCCGCAGCCCCUGUCAGAUUCUGGUGAAUCCGCGAAUUCUGCUGUACAUCUC here?
Answer: 0.57

Question: Which self-cleavage does the source give for UAACAGGGGGCCACAGCAGAAGCGUUCACGCCGCAGCCCCUGUCAGAUUCUGGUGAAUCCGCGAAUUCUGCUGUAUACCAC here?
Answer: 0.2

Question: Which self-cleavage does the source give for UAACAGGGGGCCACAGCAGAAGCGUUCACGCCGCAGCCCCUGUCAGAUUCUGGUGAAUCCGCGAAUUCUGCUGUAUACCCC here?
Answer: 0.2

Question: With UAACAGGGGGCCACAGCAGAAGCGUUCACGCCGCAGCCCCUGUCAGAUUCUGGUGAAUCUGCGAACUCUGCGGUAUAUCUC as the variant, how does the self-cleavage read?
Answer: 0.25

Question: With UAACAGGGGGCCACAGCAGAAGCGUUCACGCCGCAGCCCCUGUCAGAUUCUGGUGAAUCUGCGAACUCUGCUGUAUACCCC as the variant, how does the self-cleavage read?
Answer: 0.11

Question: For UAACAGGGGGCCACAGCAGAAGCGUUCACGCCGCAGCCCCUGUCAGAUUCUGGUGAAUCUGCGAAGUCUGCCGUAUAUCUC, which self-cleavage is on record?
Answer: 0.25

Question: Which self-cleavage does the source give for UAACAGGGGGCCACAGCAGAAGCGUUCACGCCGCAGCCCCUGUCAGAUUCUGGUGAAUCUGCGAAUACCGCUGUAUACCUC here?
Answer: 0.18

Question: Which self-cleavage does the source give for UAACAGGGGGCCACAGCAGAAGCGUUCACGCCGCAGCCCCUGUCAGAUUCUGGUGAAUCUGCGAAUCCUGCUGUUUAUCUC here?
Answer: 0.15

Question: Which self-cleavage does the source give for UAACAGGGGGCCACAGCAGAAGCGUUCACGCCGCAGCCCCUGUCAGAUUCUGGUGAAUCUGCGAAUCCUGCUGUAUGUCUC here?
Answer: 0.33

Question: For UAACAGGGGGCCACAGCAGAAGCGUUCACGCCGCAGCCCCUGUCAGAUUCUGGUGAAUCUGCGAAUUCCGCUGUAUAUCAC, which self-cleavage is on record?
Answer: 0.35

Question: With UAACAGGGGGCCACAGCAGAAGCGUUCACGCCGCAGCCCCUGUCAGAUUCUGGUGAAUCUGCGAAUUCCGCUGUAUAUCCC as the variant, how does the self-cleavage read?
Answer: 0.29

Question: For UAACAGGGGGCCACAGCAGAAGCGUUCACGCCGCAGCCCCUGUCAGAUUCUGGUGAAUCUGCGAAUUCUGCAGUAUAUCUU, which self-cleavage is on record?
Answer: 0.42

Question: With UAACAGGGGGCCACAGCAGAAGCGUUCACGCCGCAGCCCCUGUCAGAUUCUGGUGAAUCUGCGAAUUCUGCAGUAUAUCAC as the variant, how does the self-cleavage read?
Answer: 0.98

Question: With UAACAGGGGGCCACAGCAGAAGCGUUCACGCCGCAGCCCCUGUCAGAUUCUGGUGAAUCUGCGAAUUCUGCAGUAUAUCGC as the variant, how does the self-cleavage read?
Answer: 0.65

Question: With UAACAGGGGGCCACAGCAGAAGCGUUCACGCCGCAGCCCCUGUCAGAUUCUGGUGAAUCUGCGAAUUCUGCCGUAUAUAUC as the variant, how does the self-cleavage read?
Answer: 1.23

Question: Which self-cleavage does the source give for UAACAGGGGGCCACAGCAGAAGCGUUCACGCCGCAGCCCCUGUCAGAUUCUGGUGAAUCUGCGAAUUCUGCGGUAUGUCUC here?
Answer: 0.53

Question: With UAACAGGGGGCCACAGCAGAAGCGUUCACGCCGCAGCCCCUGUCAGAUUCUGGUGAAUCUGCGAAUUCUGCUGCGUAUCUC as the variant, how does the self-cleavage read?
Answer: 1.13

Question: With UAACAGGGGGCCACAGCAGAAGCGUUCACGCCGCAGCCCCUGUCAGAUUCUGGUGAAUCUGCGAAUUCUGCUGUAUAUCAU as the variant, how does the self-cleavage read?
Answer: 0.96

Question: For UAACAGGGGGCCACAGCAGAAGCGUUCACGGCGCGGCCCCAGUCAGAUUCUGGUGAGUCUGCGAAUUCUGCUGUAUGUCUC, which self-cleavage is on record?
Answer: 0.41

Question: For UAACAGGGGGCCACAGCAGAAGCGUUCACGGCGCGGCCCCUGUCAGAUUCUGGUGAAUCUGCGAAAUCUGCUGUAUAUCUC, which self-cleavage is on record?
Answer: 0.95

Question: For UAACAGGGGGCCACAGCAGAAGCGUUCACGGCGCGGCCCCUGUCAGAUUCUGGUGAAUCUGCGAAUUCUGCUGUAUAACUC, which self-cleavage is on record?
Answer: 1.24

Question: With UAACAGGGGGCCACAGCAGAAGCGUUCACGGCGCUGCCCCUGACAGAUUCUGGUGAAUCUGCGAAUUCUGCUGAAUAUCUC as the variant, how does the self-cleavage read?
Answer: 0.28
